Laboratory results taken from PubChem BioAssay AID623901 (Broad Institute, 2012).
The whole screen tested about 340,000 compounds, of which about 470 (0.14%) were called active. Inconclusive results, whose numbers are uncertain, are shown with a selection of clear calls.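 How the source made its calls: active means mean activation of 30% or more, with every replicate also reaching 30%; inconclusive means mean activation of 30% or more but some replicate falls short; inactive means the rest.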

assay: small molecules raising miR-122 sensor signal – cell-based, Huh7 psiCHECK-miR122, Renilla luciferase, single point, primary screen (AID 623901); conditions: 48 h, at 12.5 µM, active compounds read high;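 further: 0% = median of neutral control wells and 100% = median of positive control wells; higher luciferase signal means stronger suppression of miR-122 activity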

activation, active:
COc1ccc2[nH]c(C(=O)O)c(NS(=O)(=O)c3ccc(Cl)s3)c2c1 39.8%, CCCC(=O)Nc1ccc2c(c1)C(=O)N(C)[C@@H]1CC[C@H](CC(=O)NCC(F)(F)F)O[C@H]1CO2 36.7%, CCc1ccccc1NC(=O)CN(C)C(=O)Cn1ncc(Cl)c(Cl)c1=O 62.9%, COC(=O)C1=C(C)N=C2SC(C#N)=C(N)N2C1c1cc(OC)c(OC)c(OC)c1 (centres undefined) 37.6%, COc1cc2c(cc1OC)C(c1ccc(-c3ccc(Cl)c(Cl)c3)o1)=NCC2 44.2%, C[C@H](CO)N1C[C@H](C)[C@@H](CN(C)C(=O)C2CCOCC2)Oc2cc(C#Cc3ccncc3)ccc2S1(=O)=O 33.6%, CCCC(=O)Nc1ccc2c(c1)C(=O)N(C)[C@@H]1CC[C@H](CC(=O)NCCN3CCCCC3)O[C@H]1CO2 50%, C[C@H]1CN([C@@H](C)CO)S(=O)(=O)c2ccc(-c3ccc(C(=O)N(C)C)cc3)cc2O[C@H]1CN(C)C(=O)C1CCC1 43.1%

activation, inactive:
CCCNC(=O)N(C)C[C@H]1Oc2ncc(C#Cc3ccccc3F)cc2C(=O)N([C@H](C)CO)C[C@H]1C 7.3%, CNC[C@@H]1Oc2cc(C#Cc3cccc(OC)c3)ccc2S(=O)(=O)N([C@H](C)CO)C[C@H]1C 1.52%, C[C@H](CO)N1C[C@H](C)[C@@H](CN(C)C(=O)Cc2ccccn2)Oc2cc(C#C[C@@H](C)O)ccc2S1(=O)=O 1.96%, C[C@H]1CN([C@@H](C)CO)C(=O)c2cc(Br)cnc2O[C@H]1CN(C)Cc1cccc(F)c1 -14.9%, CCOC(=O)c1c(S(=O)(=O)Nc2cccc(Cl)c2)c(C)n(C)c1C -92%, C[C@@H]1CN([C@H](C)CO)S(=O)(=O)c2ccc(C#CCN(C)C)cc2O[C@H]1CN(C)C(=O)CN(C)C 5.74%, CCCCNS(=O)(=O)c1ccc2nc(-c3cccnc3)cc(C(=O)NC3CCCC3)c2c1 -96.9%, C[C@@H]1CN([C@H](C)CO)C(=O)c2cc(C#Cc3ccccn3)cnc2O[C@H]1CN(C)CC1CCOCC1 -7.38%, C[C@H](CO)N1C[C@H](C)[C@@H](CN(C)C(=O)C2CC2)Oc2cc(C#Cc3cccnc3)ccc2S1(=O)=O -16.6%, COc1cccc(C#Cc2ccc3c(c2)O[C@@H](CN(C)C(C)=O)[C@@H](C)CN([C@@H](C)CO)S3(=O)=O)c1 -4.39%, COc1ccc(NC(=O)Nc2ccc3c(c2)C(=O)N([C@@H](C)CO)C[C@H](C)[C@H](CN(C)Cc2ccc(C(F)(F)F)cc2)O3)cc1 -150%, CC(=O)N(C)C[C@@H]1Oc2cc(/C=C/c3ccccc3)ccc2S(=O)(=O)N([C@H](C)CO)C[C@@H]1C 5.31%, COc1ccc(C#Cc2ccc3c(c2)O[C@@H](CN(C)C(=O)NC2CCCCC2)[C@@H](C)CN([C@H](C)CO)S3(=O)=O)cc1 -7.56%, CCCNC(=O)C[C@H]1CC[C@H]2[C@H](COc3ccc(NC(=O)Cc4cccs4)cc3C(=O)N2C)O1 -167%, CNC[C@@H]1Oc2cc(-c3ccc(OC)cc3)ccc2S(=O)(=O)N([C@H](C)CO)C[C@H]1C 6.63%, C[C@@H]1CN([C@@H](C)CO)C(=O)c2cc(C#CCc3ccccc3)cnc2O[C@@H]1CN(C)C(=O)C1CCCCC1 -1.44%

activation, inconclusive:
CN1C(=O)c2cc(NC(=O)Nc3ccccc3F)ccc2OC[C@@H]2O[C@@H](CC(=O)NCc3ccc(-c4ccccc4)cc3)CC[C@@H]21 37.8%, CCCCC(=O)OCC(=O)c1[nH]c(C)c(C(=O)OCC)c1C 43.2%, CCC(=O)NC[C@H]1[C@H](c2ccc(C3=CCCC3)cc2)[C@H](CO)N1C(C)=O 30.5%, C[C@H]1CN([C@@H](C)CO)S(=O)(=O)c2ccc(-c3ccccc3F)cc2O[C@@H]1CN(C)Cc1cccnc1 30.2%, C/C=C/c1ccc([C@H]2[C@@H](CNC(=O)CC)N(Cc3ccccn3)[C@H]2CO)cc1 50%, CCC(=O)N(C)C[C@@H]1[C@@H](c2ccccc2)[C@H](CO)N1Cc1cccnc1 58.3%, O=C(Nc1ccccc1F)N1C[C@H]2[C@@H](c3ccccc31)[C@@H](CO)N2C(=O)C1CC1 40%, CC(C)C(=O)Nc1ccc2c(c1)C(=O)N(C)[C@@H]1CC[C@@H](CC(=O)NCC3CC3)O[C@H]1CO2 33.3%, CN1C(=O)c2cc(NC(=O)Cc3ccccc3)ccc2OC[C@H]2O[C@H](CC(=O)O)CC[C@H]21 41.7%, C=CCOc1ccc(/C=C/C(=O)Nc2ccc(C(=O)NC)cc2)cc1 32.4%, NS(=O)(=O)c1ccc(Nc2nc(-c3cccnc3)cs2)cc1 39.3%, CCC(=O)N1[C@@H](CO)[C@H](c2ccccc2)[C@@H]1CN(C(C)C)S(C)(=O)=O 33.3%, N=c1n(Cc2ccc(Cl)cc2)c2ccccc2n1CC(O)COc1ccccc1 (centres undefined) 39.3%, COCCNC(=O)C[C@H]1CC[C@@H]2[C@H](COc3ccc(NC(=O)C4CCOCC4)cc3C(=O)N2C)O1 32.5%, COCC(=O)Nc1ccc2c(c1)C(=O)N(C)[C@@H]1CC[C@@H](CC(=O)NCCCN(C)C)O[C@@H]1CO2 42.5%, CC(C)C(=O)NC(c1ccco1)c1ccc2cccnc2c1O (centres undefined) 33.5%, Cc1cc(C)cc(NC(=O)Nc2ccc3c(c2)C(=O)N(C)[C@@H]2CC[C@H](CC(=O)O)O[C@@H]2CO3)c1 33.3%, Cc1cccnc1Nc1nc(-c2ccccn2)cs1 31.2%, CC(=O)Nc1ccc2c(c1)C(=O)N(C)[C@@H]1CC[C@H](CC(=O)NCCCN3CCOCC3)O[C@@H]1CO2 33.3%, O=C(O)CC/C(=N\Nc1ccc(S(=O)(=O)N2CCCC2)cc1[N+](=O)[O-])c1cccs1 33%
